This is an account of results in PubChem BioAssay (NCI).

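A five-concentration, 48-hour dose response in 96-well plates underlies each endpoint, interpolated linearly between surrounding concentrations. Abbreviation: GI50, concentration required for 50% inhibition of growth.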 Not every entry of the source has a single result; some have several. The list is limited to them. There may be further records. The tests behind the records often covered other concentration ranges, not given here; a value can be the end of its range.

For this assay, the system named is MDA-MB-468 breast. In words: NCI tumour cell line growth inhibition, 48 h.

In the case of `CC1(C)CC(=O)c2c(ccc(C(=O)C[C@H](N)CO)c2N)O1`, the GI50 was 3.9 µM and 210 nM.
